Test results reported in US12390508B2, “Brain natriuretic peptide engrafted antibodies” (Boehringer Ingelheim International GmbH, priority 2018, dated 2025).

B1: TPP-10274: ANP engrafted antibody, CDRH3; HC SEQ ID NO 68, LC SEQ ID NO 66 (antibody, listed as Homo sapiens)
heavy: EVQLLESGGGLVQPGGSLRLSCAASGFTFSSYAMSWVRQAPGKGLEWVSAISGSGGSTYYADSVKGRFTISRDNSKNTLYLQMNSLRAEDTAVYYCTSVHQETKKYQSSPDGGSGGSLRRSSCFGGRMDRIGAQSGLGCNSFRYGSYSYTYNYEWHVDVWGQGTLVTVSS[in this place human IgG1 constant region]
light: QSVLTQPPSVSGAPGQRVTISCTGSSSNIGAGYDVHWYQQLPGTAPKLLIYGNSNRPSGVPDRFSGSKSGTSASLAITGLQAEDEADYYCQSYDSSLSGVVFGGGTKLTVLGQPKAAPSVTLFPPSSEELQANKATLVCLISDFYPGAVTVAWKADSSPVKAGVETTTPSKQSNNKYAASSYLSLTPEQWKSHRSYSCQVTHEGSTVEKTVAPTECS
modifications: NP engrafted HC
B2: TPP-10845: ANP engrafted antibody, CDRH2; HC SEQ ID NO 74, LC SEQ ID NO 66 (antibody, listed as Homo sapiens)
heavy: EVQLLESGGGLVQPGGSLRLSCAASGFTFSSYAMSWVRQAPGKGLEWVSAISGSTYISNVNHKPDGGSGGSLRRSSCFGGRMDRIGAQSGLGCNSFRYGSNTKVDKKVEGGSTYYADSVKGRFTISRDNSKNTLYLQMNSLRAEDTAVYYCAKLTGAEYFQHWGQGTLVTVSS[in this place human IgG1 constant region]
light: QSVLTQPPSVSGAPGQRVTISCTGSSSNIGAGYDVHWYQQLPGTAPKLLIYGNSNRPSGVPDRFSGSKSGTSASLAITGLQAEDEADYYCQSYDSSLSGVVFGGGTKLTVLGQPKAAPSVTLFPPSSEELQANKATLVCLISDFYPGAVTVAWKADSSPVKAGVETTTPSKQSNNKYAASSYLSLTPEQWKSHRSYSCQVTHEGSTVEKTVAPTECS
modifications: NP engrafted HC
B3: TPP-10283: ANP engrafted antibody, CDRH2; HC SEQ ID NO 70, LC SEQ ID NO 66 (antibody, listed as Homo sapiens)
heavy: EVQLLESGGGLVQPGGSLRLSCAASGFTFSSYAMSWVRQAPGKGLEWVSAISGPNPNPNPNPNSPDGGSGGSLRRSSCFGGRMDRIGAQSGLGCNSFRYGSYNPNPNPNPNPGSTYYADSVKGRFTISRDNSKNTLYLQMNSLRAEDTAVYYCAKLTGAEYFQHWGQGTLVTVSS[in this place human IgG1 constant region]
light: QSVLTQPPSVSGAPGQRVTISCTGSSSNIGAGYDVHWYQQLPGTAPKLLIYGNSNRPSGVPDRFSGSKSGTSASLAITGLQAEDEADYYCQSYDSSLSGVVFGGGTKLTVLGQPKAAPSVTLFPPSSEELQANKATLVCLISDFYPGAVTVAWKADSSPVKAGVETTTPSKQSNNKYAASSYLSLTPEQWKSHRSYSCQVTHEGSTVEKTVAPTECS
modifications: NP engrafted HC
B4: TPP-13061: ANP engrafted antibody, CDRH2; HC SEQ ID NO 78, LC SEQ ID NO 66 (antibody, listed as Homo sapiens)
heavy: EVQLLESGGGLVQPGGSLRLSCAASGFTFSSYAMSWVRQAPGKGLEWVSAISVVVTSHQAPGEGGSGGSLRRSSCFGGRMDRIGAQSGLGCNSFRYGGSTPLKSLASTYYADSVKGRFTISRDNSKNTLYLQMNSLRAEDTAVYYCAKLTGAEYFQHWGQGTLVTVSS[in this place human IgG1 constant region]
light: QSVLTQPPSVSGAPGQRVTISCTGSSSNIGAGYDVHWYQQLPGTAPKLLIYGNSNRPSGVPDRFSGSKSGTSASLAITGLQAEDEADYYCQSYDSSLSGVVFGGGTKLTVLGQPKAAPSVTLFPPSSEELQANKATLVCLISDFYPGAVTVAWKADSSPVKAGVETTTPSKQSNNKYAASSYLSLTPEQWKSHRSYSCQVTHEGSTVEKTVAPTECS
modifications: NP engrafted HC
B5: TPP-10294: ANP engrafted antibody, CDRH1; HC SEQ ID NO 72, LC SEQ ID NO 66 (antibody, listed as Homo sapiens)
heavy: EVQLLESGGGLVQPGGSLRLSCAASGFTFGSGSGSGSGSGSPDGGSGGSLRRSSCFGGRMDRIGAQSGLGCNSFRYGSYGSGSGSGSGSGMSWVRQAPGKGLEWVSAISGSGGSTYYADSVKGRFTISRDNSKNTLYLQMNSLRAEDTAVYYCAKLTGAEYFQHWGQGTLVTVSS[in this place human IgG1 constant region]
light: QSVLTQPPSVSGAPGQRVTISCTGSSSNIGAGYDVHWYQQLPGTAPKLLIYGNSNRPSGVPDRFSGSKSGTSASLAITGLQAEDEADYYCQSYDSSLSGVVFGGGTKLTVLGQPKAAPSVTLFPPSSEELQANKATLVCLISDFYPGAVTVAWKADSSPVKAGVETTTPSKQSNNKYAASSYLSLTPEQWKSHRSYSCQVTHEGSTVEKTVAPTECS
modifications: NP engrafted HC
B6: TPP-10765: ANP engrafted antibody, CDRH2; HC SEQ ID NO 73, LC SEQ ID NO 66 (antibody, listed as Homo sapiens)
heavy: EVQLLESGGGLVQPGGSLRLSCAASGFTFSSYAMSWVRQAPGKGLEWVSAISGPNPNKNPNPNPGSGGSLRRSSCFGGRMDRIGAQSGLGCNSFRYGSNPNENPNPNPGSTYYADSVKGRFTISRDNSKNTLYLQMNSLRAEDTAVYYCAKLTGAEYFQHWGQGTLVTVSS[in this place human IgG1 constant region]
light: QSVLTQPPSVSGAPGQRVTISCTGSSSNIGAGYDVHWYQQLPGTAPKLLIYGNSNRPSGVPDRFSGSKSGTSASLAITGLQAEDEADYYCQSYDSSLSGVVFGGGTKLTVLGQPKAAPSVTLFPPSSEELQANKATLVCLISDFYPGAVTVAWKADSSPVKAGVETTTPSKQSNNKYAASSYLSLTPEQWKSHRSYSCQVTHEGSTVEKTVAPTECS
modifications: NP engrafted HC
B7: TPP-10290: ANP engrafted antibody, CDRH3; HC SEQ ID NO 71, LC SEQ ID NO 66 (antibody, listed as Homo sapiens)
heavy: [in this place about 100 residues]VHPNPNPNPNSPDGGSGGSLRRSSCFGGRMDRIGAQSGLGCNSFRYGSYNPNPNPNPHVDVWGQGTTVTVSS[in this place human IgG1 constant region]
light: QSVLTQPPSVSGAPGQRVTISCTGSSSNIGAGYDVHWYQQLPGTAPKLLIYGNSNRPSGVPDRFSGSKSGTSASLAITGLQAEDEADYYCQSYDSSLSGVVFGGGTKLTVLGQPKAAPSVTLFPPSSEELQANKATLVCLISDFYPGAVTVAWKADSSPVKAGVETTTPSKQSNNKYAASSYLSLTPEQWKSHRSYSCQVTHEGSTVEKTVAPTECS
modifications: NP engrafted HC
B8: TPP-13054: ANP engrafted antibody, CDRH1; HC SEQ ID NO 77, LC SEQ ID NO 66 (antibody, listed as Homo sapiens)
heavy: EVQLLESGGGLVQPGGSLRLSCAASGFTFGSGSGSGGSGGSLRRSSCFGGRMDRIGAQSGLGCNSFRYGGSGGSGSGSGMSWVRQAPGKGLEWVSAISGSGGSTYYADSVKGRFTISRDNSKNTLYLQMNSLRAEDTAVYYCAKLTGAEYFQHWGQGTLVTVSS[in this place human IgG1 constant region]
light: QSVLTQPPSVSGAPGQRVTISCTGSSSNIGAGYDVHWYQQLPGTAPKLLIYGNSNRPSGVPDRFSGSKSGTSASLAITGLQAEDEADYYCQSYDSSLSGVVFGGGTKLTVLGQPKAAPSVTLFPPSSEELQANKATLVCLISDFYPGAVTVAWKADSSPVKAGVETTTPSKQSNNKYAASSYLSLTPEQWKSHRSYSCQVTHEGSTVEKTVAPTECS
modifications: NP engrafted HC
B9: B12 (antibody)
heavy: [in this place about 100 residues]GITGTKKYQSSPDGGSGGMVQGSGCFGRKMDRISSSSGLGCKVLRRGSYSYTYNYAEYFQHWGQGTLVTVSS[in this place human IgG1 constant region]
light: QSVLTQPPSVSGAPGQRVTISCTGSSSNIGAGYDVHWYQQLPGTAPKLLIYGNSNRPSGVPDRFSGSKSGTSASLAITGLQAEDEADYYCQSYDSSLSGVVFGGGTKLTVLGQPKAAPSVTLFPPSSEELQANKATLVCLISDFYPGAVTVAWKADSSPVKAGVETTTPSKQSNNKYAASSYLSLTPEQWKSHRSYSCQVTHEGSTVEKTVAPTECS

Experiment: Purity of purified compound samples by capillary Gel Electrophoresis under reduced conditions
Settings: for % purity pcs: reduced conditions
Procedure: The purity of purified compound samples (Example 5, Table 7, column “% purity pcs”) was determined by capillary Gel Electrophoresis according to manufacturer's instructions (LabChip GX, Caliper Life Sciences) under reduced conditions. The purity in % was calculated as sum of peak areas corresponding to the intact light and heavy chain relative to the sum of all peaks observed.

[1] = purified compound samples, capillary Gel Electrophoresis
[2] = Table 9 (excerpt of Table 7), capillary gel electrophoresis, sum of intact light and heavy chain peaks

Row | Molecule | % purity pcs [1] [%] | % purity pcs [2] [%] | Purity (Table 11, ANP engrafted IgG4 constructs with varying germline sequences) | % purity pcs (Table 8, purified compound samples, capillary gel electrophoresis) [%]
1 | B1 | 84 | – | – | –
2 | B2 | 95 | 95 | – | –
3 | B3 | 98 | 98 | – | –
4 | B4 | 96 | 96 | – | –
5 | B5 | 97 | 97 | 99 | –
6 | B6 | 95 | 95 | – | –
7 | B7 | 99 | 99 | – | –
8 | B8 | 96 | 96 | – | –
9 | B9 | – | – | – | 97
